# In all, about 33,000 sequences were measured (“E-score (-0.5 to 0.5)”: median about -0.035, highest 2% from about 0.34 on). This is one part of the list.
# Target: T1, Mot3 (UniProt P54785)
# T1 sequence: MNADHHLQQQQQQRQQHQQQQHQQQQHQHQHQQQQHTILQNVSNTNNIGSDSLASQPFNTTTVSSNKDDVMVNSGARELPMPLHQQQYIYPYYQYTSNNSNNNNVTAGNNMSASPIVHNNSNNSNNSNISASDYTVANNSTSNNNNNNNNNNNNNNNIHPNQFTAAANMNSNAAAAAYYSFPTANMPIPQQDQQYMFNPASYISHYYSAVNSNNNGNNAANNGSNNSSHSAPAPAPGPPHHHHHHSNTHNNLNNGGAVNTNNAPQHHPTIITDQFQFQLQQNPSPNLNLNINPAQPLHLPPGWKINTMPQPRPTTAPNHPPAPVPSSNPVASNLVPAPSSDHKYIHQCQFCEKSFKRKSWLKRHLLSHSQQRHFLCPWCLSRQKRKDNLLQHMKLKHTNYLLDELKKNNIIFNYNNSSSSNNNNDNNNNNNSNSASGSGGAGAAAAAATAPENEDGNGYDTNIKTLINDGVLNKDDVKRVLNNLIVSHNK
# Assay: PBM E-score (8-mer binding enrichment) (E-score (-0.5 to 0.5)); higher = stronger / more preferred TF binding; most listed sequences are background and not binding sites
# Details: protein concentration: 200 nM; construct: GST-full length
# How it was run: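 Bound GST-tagged yeast transcription factors, applied at about 100-200 nM to double-stranded universal all-10-mer Agilent arrays, were detected with fluorescent anti-GST. Scans were normalised with masliner. A modified Wilcoxon-Mann-Whitney statistic, the E-score, was assigned to each ungapped eight-base word pooled with its reverse complement by the Universal PBM Analysis Suite.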
row,Sequence,PBM E-score
1,ATCGTTAG,-0.0878
2,GCTTCTTA,0.0229
3,GAATCGCA,-0.2
4,CGTAGCGC,-0.12
5,AATAGCAA,0.0944
6,CGTAGTAG,0.0742
7,ATTTCGAG,-0.00637
8,ATACGGAG,-0.127
9,ATGCGTTA,0.252
10,GCCGTAGA,-0.096
11,GGTAAGTA,0.295
12,ATCCCGAC,-0.104
13,ATTGGTAG,-0.037
14,AAAAGCAA,0.195
15,AGGGGCAG,-0.234
16,ACAAGACA,0.207
17,ACCGATAC,-0.0799
18,AGCCACAA,-0.154
19,CAAAATCC,0.0251
20,ATAACCAA,0.0625
21,ATAATCCC,-0.119
22,AAGTCACG,0.205
23,CGTTTAAA,0.174
24,CCGATGGA,-0.232
25,GAAGACAC,0.0023

row,Sequence,PBM E-score
1,GACCTCGC,-0.181
2,AATGCACG,0.0706
3,CAGTTTAC,0.215
4,AGTTTAGC,-0.0648
5,CACCAATG,-0.102
6,AGAAAAGA,0.0735
7,GAACTCGA,0.0884
8,TCTACGCA,0.275
9,AGAGTCGG,-0.0456
10,GGAATTCC,-0.315
11,AGAGTTAA,0.0318
12,CGGTCGGC,-0.32
13,AACGAGGA,0.00748
14,GAACCCGC,-0.121
15,GCAACCGA,-0.266
16,GGATGTGA,-0.0241
17,AATAGTGG,0.164
18,TCTAAGCA,0.0236
19,AAAAATCT,0.0523
20,CGAAGTTC,-0.0913
21,AACCCGTG,-0.211
22,AACTTGCC,0.204
23,CCTAGTAA,0.117
24,AATGTACA,0.292
25,CATCATCC,-0.119

row,Sequence,PBM E-score
1,ACGCAGTC,-0.0289
2,GGCTACGA,-0.125
3,AGGACCCA,-0.323
4,CCATGCGC,-0.143
5,AATTGGAC,-0.145
6,CTCGACCA,-0.258
7,CAGAATCA,0.0337
8,GGTGCACC,-0.00493
9,AACTATAG,-0.0332
10,ACCTGACT,0.002
11,AAACGGAT,0.0493
12,GCACTTAA,0.133
13,GCCGAATA,-0.0956
14,CCGAGGCA,0.308
15,CACGCCTC,0.0202
16,CCGTCTAC,0.0226
17,CTTTCAAA,0.048
18,ATTGCTCG,-0.228
19,ATTGGTGG,-0.139
20,ACGTACAT,0.286
21,CCGTGAAG,-0.126
22,GTCATAGA,0.11
23,GTTCTTAA,-0.031
24,CTTTCTGC,-0.0935
25,GCAGTCCC,-0.164

row,Sequence,PBM E-score
1,GGGGTGAA,-0.261
2,CTTAATCC,-0.00888
3,CATCGGTA,-0.221
4,AGTAGGAA,0.403
5,CGGGGGAA,-0.149
6,AGGTCCCA,-0.294
7,CCAGGTGC,-0.0667
8,AGTAGGTC,-0.0219
9,ACCTAGAC,-0.153
10,CAGGTCCG,-0.302
11,AGCTTAGG,-0.0963
12,CCGGTCCA,-0.328
13,CTCCAAAC,0.0667
14,CTAGTTCC,0.168
15,GTGAACCA,0.0599
16,TACTCCTA,0.122
17,GGTGTGCA,-0.119
18,CACGTTTA,0.3
19,CTCACCTA,-0.0658
20,CTTTATGA,-0.0242
21,GAGAGTCC,-0.229
22,ACCTCGAT,-0.0183
23,AAGACAGG,0.103
24,AGTGTCCA,0.0882
25,CGACGCCA,-0.163

row,Sequence,PBM E-score
1,AAAAGCGG,-0.0916
2,AATTGTAG,0.17
3,CCGCGAAG,-0.141
4,TCCGCGAA,0.113
5,GACAGTTA,-0.0316
6,AGATCACG,-0.051
7,AGAACTGC,-0.146
8,AGCACAGG,0.0314
9,CGACTAAA,-0.0183
10,TCACTAAA,0.157
11,ATCACGAA,-0.0774
12,AAATAAAG,-0.056
13,GTACGGGA,-0.0576
14,AATCTCAC,-0.123
15,ACATGTCC,0.259
16,AAAAGCTT,0.115
17,CAGTACAA,0.0155
18,GTATACAA,0.181
19,GCGCATCC,-0.0152
20,AAGAGAGA,0.0257
21,GCCGGTAC,-0.0905
22,ATTTCAAG,0.0233
23,CCATTGGG,-0.275
24,GGCAGTAC,0.0561
25,CATCCTCA,-0.102

row,Sequence,PBM E-score
1,AATTTAAG,0.0519
2,AATTCCAG,-0.00489
3,CAGTGATA,-0.0792
4,CGTTGCGC,-0.0266
5,GACAAAAA,0.0881
6,GAATACAA,0.214
7,AGCGAAAT,0.0221
8,GCGAAAGA,-0.039
9,ACGCCCTC,-0.0732
10,ATCGGGGG,-0.388
11,CGAAGGTC,-0.313
12,ATTGGCTC,0.00098
13,GTGTCAAA,0.262
14,AAAGGCCG,-0.309
15,ACGAGACA,-0.107
16,AATGGGTG,0.0474
17,ATCTATGG,-0.335
18,ATACTTGG,-0.146
19,GGGGAGTA,-0.162
20,CATTCCCG,-0.0674
21,AAAACCAA,0.161
22,ATTCACTC,0.0527
23,ACTGTTCT,-0.0685
24,ATCAGTCG,-0.0808
25,CATTAACC,0.11

row,Sequence,PBM E-score
1,CCTACGTC,0.0371
2,ATGAATTA,0.0978
3,GCCTCAGC,-0.105
4,AATTATGC,0.191
5,GAGCAGTA,-0.192
6,CCGCCCGG,-0.178
7,CATCTATA,-0.0629
8,GCATTCGC,-0.00393
9,AATGATCA,-0.084
10,AACGGTAC,-0.145
11,AGCCAGCA,-0.257
12,TGAGTCAA,0.046
13,CTACTTTA,0.119
14,CTCGTGTC,0.184
15,AAACGCGG,0.0999
16,ATGGCTAA,-0.198
17,ATAGCTAA,-0.0278
18,CAGTTCTA,-0.0219
19,CTCTACAG,0.0634
20,GTTCACGA,-0.101
21,AAGATTCT,-0.154
22,GGATGTAC,0.197

# — the supplement of paper PMC3334620
